# Reference: PubChem BioAssay AID938 (National Center for Advancing Translational Sciences (NCATS), 2007)
# The campaign covered roughly 73,000 compounds. About 1,800 (2.5%) were called active. Inconclusive results, whose numbers are uncertain, are shown with a selection of clear calls. Calls come from the whole dose curve; as a rule, active = well fitted activation curve with a large enough effect; inconclusive = small, poorly fitted or top-dose-only effect; inactive = no such curve, though single readings can be large or run the other way. No potency is given beside an inconclusive call; the fits are too rough.
# Assay: qHTS Assay for Agonists of the Thyroid Stimulating Hormone Receptor: Activators of Intracellular cAMP Concentrations in Parental HEK 293; note: nearly all actives have a fitted effect of over 55% in size; for activation: % of control where 0% means no effect
# Conditions: parental HEK293 CNG cAMP sensor, membrane potential fluorescence; activation: at 57.1 µM (top of the series) unless noted
# Method in brief: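 Parental HEK 293 cells stably expressing a modified CNG channel (no TSHR) report cAMP rise as membrane depolarization. Membrane potential dye with 100 uM RO 20-1724 was loaded for 60 min at room temperature, then compound added for 30 min; fluorescence read at 590 nm.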
# Potency is the fitted concentration of half-maximal effect; tags give direction and shape of the fitted curve.
SMILES,Potency,activation
CC1CCN(C(=O)C2c3ccccc3C(=O)N3CCc4ccccc4C23)CC1 (centres undefined),"inconclusive [activator, partial curve]",
O=C(NC1CCCCC1)c1ccc(S(=O)(=O)NCc2ccco2)cc1,"inconclusive [activator, partial curve]",
COc1ccc(S(=O)(=O)NC(CC(=O)NCc2ccco2)C(C)C)cc1 (centres undefined),"inconclusive [activator, single point]",
COc1ccccc1-c1ccc2ncnc(NCc3cnc(C)cn3)c2c1,active: 25.1 µM,
CC(C)Oc1ccccc1C1CC(=O)Nc2cc3c(cc21)OCO3 (centres undefined),"inconclusive [activator, partial curve]",
COc1ccc(Cl)cc1C(=O)Nc1ccc(NC(=O)c2ccco2)cc1,inactive,
COC(=O)c1ccc(CSc2nc3ccccc3s2)o1,"inconclusive [activator, single point]",
COc1ccc(NC(=O)Cn2nc(C(F)(F)F)c3c2CCCC3)c(OC)c1,"inconclusive [activator, partial curve]",
CCOC(=O)C1CCN(C(=O)CSc2cc(=O)n(CC)c3ccccc23)CC1,"inconclusive [activator, partial curve]",
Cc1ccc(-c2nn3c(C)nnc3s2)cc1NCc1c(F)cccc1Cl,"inconclusive [activator, single point]",
COc1ccc(-c2cc(C(=O)N/N=C\c3cc(OC)c(OC)c(OC)c3)[nH]n2)cc1,inactive,
CCCCn1c(SCc2ncc(-c3ccccc3)o2)nc2cc(S(N)(=O)=O)ccc21,"inconclusive [activator, single point]",
Cc1ccnc(NC(=O)CCC(=O)N(CC(=O)NCCc2ccccc2)Cc2ccco2)c1,"inconclusive [activator, partial curve]",
O=C(c1cccc2ccccc12)N1CCN(CC2CC=CCC2)CC1 (centres undefined),"inconclusive [activator, single point]",
Cc1ccc(OCc2nnc(SCC(=O)c3ccccc3)n2Cc2ccco2)cc1,"inconclusive [activator, single point]",
COc1ccc(-c2nc3cnc(N(C)C)nc3n(Cc3ccc(F)cc3)c2=O)cc1,inactive,
Cn1c(=O)cc(OCCCC(=O)Nc2cccnc2)c2ccccc21,"inconclusive [activator, single point]",
O=C(CN1CCc2ccccc2C1)N1CCN(S(=O)(=O)c2ccccc2)CC1,inactive,
Cc1ccc2nc3sc(C(=O)N4CCOCC4)c(N)c3cc2c1,inactive,
CCOC(=O)N1CCN(CCC(=O)c2ccc(Cl)cc2)CC1,"inconclusive [activator, partial curve]",
O=C(CSc1nnc(-c2cccs2)n1CC1CCCO1)c1cc2ccccc2o1 (centres undefined),"inconclusive [activator, partial curve]",
O=C(c1ccco1)N1CCC2(CCN(Cc3cc(C(F)(F)F)cc(C(F)(F)F)c3)CC2)CC1,"inconclusive [activator, partial curve]",
O=C(Cn1nnc(-c2ccccc2NC(=O)c2ccco2)n1)NC1CCCCC1,"inconclusive [activator, single point]",
CS(=O)(=O)N1CCCC(C(=O)NCc2ccccc2Cl)C1 (centres undefined),inactive,
COC(=O)CNC(=O)C1(C)C=CC2(CCCCC2)N1C(C)=O (centres undefined),inactive,

SMILES,Potency,activation
C=CCOC(=O)COc1ccc2c(C)c(C)c(=O)oc2c1C,"inconclusive [activator, single point]",
CC(=O)N1CCN(c2ccc(NC(=O)c3ccc(C(C)(C)C)cc3)cc2)CC1,inactive,
O=S(=O)(NCCOc1ccc(F)cc1)c1ccc2c(c1)OCCO2,"inconclusive [activator, partial curve]",
O=C1CCCCCN1CSc1nc2ccccc2s1,"inconclusive [activator, partial curve, poor fit]",
COc1cc(-c2nnc3sc(C4CCCCC4)nn23)cc(OC)c1OC,"inconclusive [activator, single point]",
COc1cccc(-c2nccc(NCc3ccc(OC)cc3OC)n2)c1,"inconclusive [activator, single point]",
CCn1nc(C(=O)OCC(=O)c2cc(C)n(Cc3cccs3)c2C)c2ccccc2c1=O,"inconclusive [activator, full curve]",
Cc1ccc(NC(=O)NC(=O)CSc2nnnn2C)c(C)c1,"inconclusive [activator, single point]",
Cc1ccccc1Cn1nc(C)c(NC(=O)c2cc3nc(-c4ccco4)cc(C(F)(F)F)n3n2)c1C,inactive,
COc1ccc(Oc2ncc3nc(C)c(=O)n(Cc4cccs4)c3n2)cc1,"inconclusive [activator, full curve]",
Cc1nc2cc(NCc3nc4ccccc4n3Cc3ccccc3)ccc2n1C,inactive,
Cc1ccccc1CN1CCN(CC(=O)NCc2ccccn2)C1=O,"inconclusive [activator, single point]",
C(=N/Nc1ccccn1)/c1cccnc1,,inactive: -4.22% [at 11.4 µM]
CCCCC(C=O)CC (centres undefined),"inconclusive [activator, full curve, poor fit]",
O=C(Nc1cccc(-c2cn3cccnc3n2)c1)c1ccco1,,inactive: 7.94% [at 2.29 µM]
COc1ncc2nc(-c3ccccc3)c(=O)n(Cc3cccs3)c2n1,inactive,
COc1ccc2cc3cc(C(=O)NCCN4CCN(c5ccccc5F)CC4)oc3nc2c1,"inconclusive [activator, partial curve]",
Nc1nc(Nc2cccc3ccccc23)nc(C2CCCC2=O)n1 (centres undefined),inactive,
CCn1c(N)c(C(=O)NCC2CCCO2)sc1=S (centres undefined),"inconclusive [activator, single point]",
COc1ccc(NC(=O)Nc2nnc(N3CCC(C)CC3)s2)cc1OC,"inconclusive [activator, single point]",
N=C(C[C@@H](O)COc1ccccc1-c1ccccc1)N1CCCCC1,active: 31.6 µM,
O=C(Cc1coc2ccc3ccccc3c12)N1CCN(c2ncccn2)CC1,"inconclusive [activator, single point]",
CCCCCc1cc(O)c2c(C)cc(=O)oc2c1,active: 3.16 µM,
Cc1nc2ccccn2c1/C(O)=C1\C(=O)C(=O)N(CCN2CCOCC2)C1c1cccnc1 (centres undefined),"inconclusive [activator, single point]",
CCOC(=O)c1c(C)n(C)c2ccc(OCC(O)Cn3nc(C)c(Br)c3C)cc12 (centres undefined),"inconclusive [activator, single point]",

SMILES,Potency,activation
Cc1ccc(-c2nc(C#N)c(NCc3ccco3)o2)cc1,inactive,
O=c1cc(-c2ccc(O)c(O)c2)oc2cc(O)cc(O)c12,inactive,
c1ccc(CC2CCN(C(c3cccs3)c3nnnn3C3CCCC3)CC2)cc1 (centres undefined),"inconclusive [activator, partial curve]",
CCC(C)(C)n1nnnc1C(c1ccc2ncccc2c1)N1CCN2CCCC2C1 (centres undefined),"inconclusive [activator, single point]",
CC(C)Nc1nc(NC(C)C)nc(C(N)=O)n1,inactive,
CC(=O)NCCN=Cc1sc2ccccc2c1O,"inconclusive [activator, single point]",
COc1cc(S(=O)(=O)n2nnc3ccccc32)c(OC)cc1Cl,"inconclusive [activator, partial curve]",
c1ccc(OCc2nc3ccccc3s2)cc1,inactive,
O=C(OCC#CCSc1nc2ccccc2o1)c1ccco1,"inconclusive [activator, single point]",
O=C1CCC(C(=O)Nc2cccc3ccccc23)N1 (centres undefined),inactive,
Cc1cccc2cc(C#N)c(NCCCn3ccnc3)nc12,"inconclusive [activator, full curve, poor fit]",
CC(C)(C)C(=O)/C=C(N)/C=C/c1ccccc1,"inconclusive [activator, single point]",
O=C(CCc1ccccc1)Nc1c(F)c(F)c(F)c(F)c1F,active: 15.8 µM,
COc1cc(C(c2nnnn2C2CCCC2)N2CCN(C)CC2)cc(OC)c1OC (centres undefined),inactive,
O=C1OCc2cc(NC(=O)C3COc4ccccc4O3)ccc21 (centres undefined),inactive,
Cc1ncc2c(c1O)COP(=O)(O)OC2,inactive,
CCOc1nc(C#N)nc(N2CCCCC2)n1,"inconclusive [activator, partial curve]",
Cc1ccnc(N2CCC(C(=O)Nc3ccc(Oc4ccccc4)cc3)CC2)n1,inactive,
CC(C)c1ccccc1N1CC(C(=O)O)CC1=O (centres undefined),inactive,
CC(=O)N1[C@H](Cc2ccccc2)C=C[C@]1(C)C(=O)NCc1cc(F)cc(C(F)(F)F)c1,"inconclusive [activator, single point]",
O=C(CCn1nnc(-c2cccs2)n1)N1CCc2ccccc2C1,"inconclusive [activator, partial curve]",
O=C(NCc1ccccc1)[C@@H]1C[C@H]1[C@@H](NP(=O)(c1ccccc1)c1ccccc1)c1ccccc1,"inconclusive [activator, partial curve]",
O=S(=O)(c1ccccc1)N(Cc1nc(-c2ccccc2)no1)C1CCCCC1,"inconclusive [activator, partial curve]",
CCC(Cc1ccccc1)NC(=O)CN1C(=O)CSc2ncccc21 (centres undefined),"inconclusive [activator, partial curve]",
